The whole screen tested about 150,000 compounds, of which about 540 (0.36%) showed an effect of 50% or more. The list shows a part of the results.
The compounds below were run on Plasmodium falciparum (assay: Primary screen in NF54 nanoGlo assay, in single point, at 2uM, 72h; a lower Z score goes with more inhibition). Conditions: timepoint 72 hour.
Format: functional, Erythrocyte

Compound	% Inhibition	Z score
COc1ccc(-c2nc(C)nc3onc(C)c23)cn1	-11%	1.46
CC1Cc2cc(-c3ccc(CNC(=O)C(C)(O)C4CC4)cc3)ccc2O1 (configuration not stated)	35%	-0.59
COc1ccc(C(=O)N2CCC3(CC2)[C@@H](OC)CN3c2cccc(F)c2)c(OC)c1	-11%	1.45
CCCCN(CC(=O)N(Cc1ccco1)C[C@H]1CCCO1)C(=O)NC(C)(C)C	-8%	1.08
Cc1nc2c(c(-c3ccncc3F)n1)CCC2	-15%	2.8
CN=C(NCc1csc(C2CC2)n1)N[C@@H](C)c1ccc(C)o1	-9%	0.96
CC(=O)N1CC[C@@]2(O)CCN(CC(=O)Nc3ccc(C)c(C)c3)C[C@H]2C1	-8%	1.03
COc1ccc(NCc2cc3ccccc3o2)cn1	-9%	1.01
COc1nc2c(cc1CNC(=O)CCn1cccn1)C(=O)N(C1CCCC1)C2	-23%	2.93
Cn1nc(C2CC2)cc1N1CCN(C(=O)c2noc3c2CCCC3)CC1	4%	-0.55
Cn1cc(C(=O)N2CCc3c(C#N)cccc32)c(C2CC2)n1	-4%	0.69
OC1(C(F)(F)F)CCN(Cc2cnc3cnccn23)CC1	-2%	0.41
CCOc1cccc(CNC(=O)C2CC=CC2)c1	-3%	0.5
Cc1cc(C)c(CNCCS(=O)(=O)N2CCCC2)c(C)c1CO	-15%	2.19
COCCCNC(=O)[C@@H]1CCCCc2nn(Cc3cccc(F)c3)c(=O)n21	-15%	1.43
Cc1csc([C@H](C)N(C)c2nc3c(s2)c(C)nn3C)n1	-18%	1.66
Cc1cc(NC(=O)c2cc(C(C)C)[nH]n2)n(C)n1	15%	-2.27
C[C@H]1CN(CCNC(=O)Nc2ccns2)CCO1	-4%	0.76
O=c1cc(N2CCNCC2)cnn1Cc1csc(-c2ccccc2)n1	5%	-0.62

Compound	% Inhibition	Z score
COc1cccc(Cn2nccc2NC(=O)c2scnc2C)c1OC	-4%	0.6
O=C1CN(c2ccc(NC(=O)c3cccs3)cn2)CCN1	2%	-0.27
CCCc1cc([C@@H]2CCCN2Cc2ccc(OCC)c(OC)c2)no1	-9%	1.19
O=C(NC[C@H]1CC2c3ccccc3C1c1ccccc12)N(CCO)C1CC1	1%	-0.12
COc1ccc(-c2cnc3ncnn3c2N2CCCN(C(=O)Nc3cc(OC)c(OC)c(OC)c3)CC2)cc1	21%	-2.04
O=C(NC(C1CCC1)C1CCC1)[C@H]1CCS(=O)(=O)C1	-2%	0.22
O=C(c1cccs1)N1CCc2sc(Cl)cc2C1	-12%	1.35
CCCN(Cc1c(-c2ccccc2)nn(C)c1Oc1ccc(Cl)cc1)C(=O)c1ccco1	-20%	1.77
Cc1cc(C(=O)N2CCC[C@H](c3nc(C4CCOCC4)no3)C2)nn1C	-12%	1.74
Cc1cc(NC(=O)NCC(C)(C)[C@@H](O)C(C)C)nn1C	-5%	0.71
CS(=O)(=O)CCN(C(=O)c1csc([C@@H]2CCCO2)n1)C1CC1	-6%	0.77
Cc1noc(C)c1C(=O)N[C@H](c1ccccc1)C1CC1	-5%	0.89
COc1cncc(C(NS(=O)(=O)N2CCCCCC2)[C@H]2C[C@H](O)C2)c1 (some centres not stated)	-7%	1.08
Cn1cc(-c2nccnc2CNC(=O)c2ccncc2F)cn1	-13%	1.5
CCNc1ccc(Cl)cc1C(=O)OCCOCC	-10%	1.01
O=C(c1ccncc1)N1C[C@H](O)[C@@H](N2CCN(c3ccccn3)CC2)C1	1%	-0.19
NC[C@H]1Cn2cccc2CN1Cc1ccccc1	0%	0.06
Cc1ccc(OC2CCN(C(=O)Nc3ccccc3C)CC2)nn1	-11%	2.09
Cc1sc(C)c(S(=O)(=O)NC2CCC(C)CC2)c1-c1ccno1 (configuration not stated)	-16%	2.81

Compound	% Inhibition	Z score
CC(C)(C)n1cc(CNCC(F)(F)CO)nn1	-17%	2.38
O=C(NCc1cccc(CN2CCCC2=O)c1)[C@@H]1CCc2cccnc21	-8%	1.01
O=C(NCC#CCN1CCc2ccccc2C1)c1cccc(F)c1	0%	0.05
CCCNC(=O)COc1ncnc2onc(-c3ccccc3)c12	-7%	1.08
COCCOCc1nc(Cc2cccs2)nn1C1Cc2ccccc2C1	6%	-1.23
CC(O)CNS(=O)(=O)N1CC(C)CC(C)C1 (configuration not stated)	27%	-3.03
CCc1nc(N)nc(NCCc2noc(C3CCC3)n2)c1C	-9%	1.33
O=S(=O)(c1ccc(Cl)s1)N1CCC[C@H]1c1nc2ccccc2s1	-3%	0.51
CCOc1ccccc1NC(=O)CN1CCN(Cc2ccccc2)S1(=O)=O	-21%	1.81
Nc1c(Br)cc(/C=C2\C=Cc3ccccc32)cc1Br	-4%	0.43
CN(Cc1cnccn1)S(=O)(=O)c1cc(Cl)c(N)c(Cl)c1	-23%	4.46
CCc1ccc(S(=O)(=O)Nc2ccc(N3CCCCC3=O)c(OC)c2)s1	-16%	2.41
O=C(C1CCC1)N1CC(c2nc(-c3ccncc3)no2)C1	-9%	1.67
COc1ccc(-c2ccno2)cc1S(=O)(=O)N[C@@H](C)c1nncn1C	-7%	1.04
CCOC(=O)N1CCC(N2C(=O)c3ccc(C(=O)NCCCc4ccccc4)cc3C2=O)CC1	-6%	0.97
COCc1ccnc(NC(=O)N[C@@H](CO)C(C)(C)C)n1	-4%	0.47
CC(=O)Nc1nc2ccc(NC(=O)Nc3cccc(Cl)c3)cc2s1	12%	-1.96
Cn1cnc(C(=O)N2CCC[C@H](CC(F)(F)F)C2)c1	-15%	2.5

From ChEMBL document CHEMBL4888484, “Replenishing the malaria drug discovery pipeline: Screening and hit evaluation of the MMV Hit Generation Library 1 (HGL1) against asexual blood stage Plasmodium falciparum ,using a nano luciferase reporter read-out” (2022)
